Assay results: PubChem BioAssay AID1508642 (National Center for Advancing Translational Sciences (NCATS), 2021)
Among all 43,000 compounds or so, about 200 (0.47%) were called active. Inconclusive results (about 12%) are left out. The call rests on the fitted dose curve; in most records, active means well fitted cell-killing curve with a large enough effect; inconclusive means small, poorly fitted or top-dose-only effect, or effect the other way; inactive means flat fitted curve, though single readings scatter. The list shows a part of the results.

Assay: Cell viability qHTS assay in S16 Pmp22-F2sN cells; further: nearly all actives have a fitted effect of over 65% in size
Settings: S16 Pmp22-F2sN Schwann cells (luciferase reporters placed in the Pmp22 gene) viability, CellTiter-Glo, 24 h; series mostly up to 57.5 µM; activity change, negative = cytotoxicity: at the top concentration
Method in brief: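 S16 Schwann cells carrying the Pmp22-F2sN reporter, seeded in 1536-well format, were exposed to library compounds for 24 h at 37C. Viability was read as CellTiter-Glo luminescence after 15 min at room temperature.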
On the % scale 0 is the no-effect control and ±100 the full control effect.

| Structure (SMILES) | activity change, negative = cytotoxicity |
| --- | --- |
| Cc1ccc(CNC(=O)C2CCN(c3ncnc4c3nc3n4CCCCC3)CC2)cc1 | inactive: -0.984% |
| CCOC(=O)C1CCCN(S(=O)(=O)c2cc(-c3cc(C)no3)ccc2C)C1 (centres undefined) | inactive: -1.56% |
| CCC(=O)N1c2ccc(S(=O)(=O)N3CCN(c4ccccc4Cl)CC3)cc2CC1C (centres undefined) | inactive: -0.405% |
| COc1cccc(CNC(=O)c2ccc(CS(=O)Cc3ccc(Cl)cc3)o2)c1 (centres undefined) | inactive: -13.2% |
| Cc1ccc(C(=O)CSc2nnc3ccc4ccccc4n23)cc1 | inactive: 7.21% |
| N#Cc1cc2c(=O)n3ccccc3nc2n(-c2nnc(SCc3ccccc3)s2)c1=O | inactive: 4.42% |
| O=C(Cc1ccc(F)cc1)NCCc1csc(-c2ccc(C(F)(F)F)cc2)n1 | inactive: -3.15% |
| CCOC(=O)c1cnc(NCc2ccc(Cl)cc2)c2ccccc12 | inactive: -0.68% |
| Cn1c(CN2CCCCC2)nc2cc(NC(=O)c3ccc(Cl)cc3)ccc21 | inactive: -6.56% |
| CCn1c(=O)cc(OCC(=O)Nc2ccccc2Cl)c2ccccc21 | inactive: 2.18% |
| CCN(CC)C(=O)c1ccccc1NC(=O)c1cccc(S(=O)(=O)N2CCC(C)CC2)c1 | inactive: 15.1% |
| Cc1c(C(=O)NCc2ccccc2)oc2c1-c1[nH]ncc1CC2 | inactive: -1.09% |
| CCOc1ccccc1C1Nc2ccccc2-c2nnc(SCc3ccccc3)nc2O1 (centres undefined) | inactive: -1.32% |
| COc1ccc(Br)cc1CNC(=O)c1ccc(-n2c(C)cc3c2CCC(C)C3)cc1 (centres undefined) | inactive: -25.8% |
| COCCCn1c(=N)c(C(=O)NC2CCCC2)cc2c(=O)n3cc(C)ccc3nc21 | inactive: 4.86% |
| Cc1cc(O)c(CN2CCN(c3ccc(F)cc3)CC2)c2oc(=O)cc(C)c12 | inactive: 10.8% |
| Cc1cccc(C(=O)Nc2nnc(S(=O)(=O)N3c4ccccc4CC3C)s2)c1 (centres undefined) | inactive: 2.4% |
| CCOc1ccc(-c2nnc(SCC(=O)NCCc3ccccc3)nc2-c2ccc(OCC)c(OC)c2)cc1OC | inactive: -2.68% |
| Cc1oc2ncnc(N3CCCCC3)c2c1C(=O)Nc1cccc(F)c1 | inactive: -11.7% |
| CCc1ccc(CNC(=O)c2sc3ncnc(N(C)C4CCCCC4)c3c2C)cc1 | inactive: 5.66% |
| COc1ccc(-c2cc(-c3ccc(F)cc3)nc3c2COc2ccccc2-3)cc1 | inactive: 13.2% |
| CCOc1ccc(OCC)c(NC(=O)c2c(C)nn(-c3ccccc3)c2-n2cccc2)c1 | inactive: -11.8% |
| COc1ccc(CCCc2nnc(SCC(=O)Nc3ccc(Cl)cc3)o2)cc1 | inactive: -0.528% |
| Cc1ccccc1CN1C(=O)C(O)(CC(=O)c2cccc(Br)c2)c2ccccc21 (centres undefined) | inactive: -23.8% |

| Structure (SMILES) | activity change, negative = cytotoxicity |
| --- | --- |
| CCN(CC)C(=O)C1CCCN(c2ncnc3c2nc2n3CCCCC2)C1 (centres undefined) | inactive: -3.12% |
| COc1ccc(CCNC(=O)c2cc3c(=O)[nH]c4ccc(C)cc4c3s2)cc1OC | inactive: -0.78% |
| CCOC(=O)CNC(=O)Cn1nc(N2CCN(c3ccccc3)CC2)ccc1=O | inactive: 12.4% |
| CC(=O)c1cccc(NC(=O)c2cc(-c3ccc4c(c3)OCCO4)on2)c1 | inactive: 3.43% |
| COC(=O)c1ccccc1NC(=O)CCCS(=O)(=O)c1nc(-c2ccccc2OC)cc(C(F)(F)F)n1 | inactive: 6.92% |
| CCOc1ccccc1CNC(=O)CN1C(=O)C2CCCCN2c2ccc(C(=O)N(C)C)cc21 (centres undefined) | inactive: 5.01% |
| Cc1ccc(Cl)cc1N(C)C(=O)c1cc2ccc3cccnc3c2[nH]1 | inactive: -13.2% |
| CCNC(=O)CC1C(=O)N(c2ccc(F)cc2)C(=O)N1Cc1ccc(C)cc1 (centres undefined) | inactive: 10.6% |
| CCCCOc1ccc(C(=O)NCCc2csc3nc(-c4ccccc4F)nn23)cc1 | inactive: -13.8% |
| Cc1cc(NC(=O)CSc2ncc(C(=O)Nc3ccccc3)c(=O)n2C)no1 | inactive: 1.14% |
| O=C(NCc1ccccn1)c1nn(-c2ccccc2Cl)nc1CO | inactive: -3.12% |
| COc1ccccc1CNC(=O)C(Cc1ccccc1)NS(=O)(=O)c1ccc2c(c1)CCN2C(C)=O (centres undefined) | inactive: 0.556% |
| Cc1ccccc1NC(=O)c1ccc(CNS(=O)(=O)c2ccc3c(c2)C(C)(C)C(=O)N3C)cc1 | inactive: 0.128% |
| CSc1ncc(C(=O)Nc2cccc(Cl)c2C)c(-c2ccccc2)n1 | inactive: 2.09% |
| CCN(CC)C(=O)C1=C(C)Nc2nc3ccccc3n2C1c1ccc(Cl)cc1 (centres undefined) | inactive: 12.7% |
| CSc1ccc(CCNC(=O)c2ccc3c(c2)c(C)c(C)n3Cc2ccc(F)cc2)cc1 | inactive: -5.98% |
| CCn1c(CN2CCN(C)CC2)nc2cc(NC(=O)c3cc(OC)c(OC)c(OC)c3)ccc21 | inactive: -7.09% |
| CCOc1ccccc1C(=O)NCC(c1ccc(N(C)C)cc1)N1CCCC1 (centres undefined) | inactive: 5.84% |
| Cc1ccc(NC(=O)/C(C#N)=C\c2ccc(Cl)cc2Cl)cc1C | inactive: -1.13% |
| COc1ccc2c(c1)c1c(c(=O)n(CCc3ccccc3)c(=O)n1Cc1ccc(Cl)cc1)n2C | inactive: -1.71% |
| COc1cc(NC(=O)N2CCN(c3cc(-c4noc(C)n4)ccc3C)CC2)cc(OC)c1OC | inactive: 1.68% |
| CCOc1ccccc1NC(=O)N1CCN(S(=O)(=O)c2ccc3c(ccn3C)c2)CC1 | inactive: -2.35% |
| CC(C)c1ccccc1NC(=O)CSc1nnc(COc2ccccc2Cl)o1 | inactive: -12.9% |
| Cc1ccc(-c2ccc(CCC(=O)O)n2-c2ccc(C(C)C)cc2)cc1 | inactive: -0.17% |

| Structure (SMILES) | activity change, negative = cytotoxicity |
| --- | --- |
| Nc1c(-c2nc(-c3ccccc3)no2)nnn1CC(=O)Nc1ccccc1 | inactive: 5.31% |
| COc1ccccc1CNC(=O)Cn1ncc2c(C)n(Cc3ccccc3Cl)c(C)c2c1=O | inactive: -1.42% |
| COC(=O)CSc1nnc2n(-c3ccccc3)c(=O)c3c4c(sc3n12)COC(C(C)C)C4 (centres undefined) | inactive: 3.34% |
| CCC(=O)N1CCc2cc(S(=O)(=O)N(C)c3cccc(C)c3)ccc21 | inactive: -7.26% |
| CCOc1ccccc1N(C)C(=O)Cn1nc(Cc2cccnc2)c2ccccc2c1=O | inactive: 18.1% |
| CCN(c1cc(C)cc(C)c1)S(=O)(=O)c1nnc(NC(=O)c2cccc(F)c2)s1 | inactive: -25.4% |
| CCOc1ccccc1N1CC(c2nc3ccccc3n2CCOc2ccc(C(C)(C)C)cc2)CC1=O (centres undefined) | inactive: 12.7% |
| Cc1ccccc1NC(=O)c1sc2nc(N3CCOCC3)c3c(c2c1N)CC(C)(C)OC3 | inactive: -8.86% |
| Cc1ccc(-n2ncc(C(=O)N3CCC(c4ccccc4)C3)c2C2CCN(C(=O)OC(C)(C)C)CC2)cc1 (centres undefined) | inactive: -6.57% |
| CCCCOc1ccc(CNC(=O)c2ccc(NC(=O)N3CCSc4ncccc43)cc2)cc1 | inactive: -22.5% |
| Cc1ccc(C)c(CN2C(=O)c3ccccc3S(=O)c3ccc(C(=O)N(C)Cc4ccccc4)cc32)c1 (centres undefined) | inactive: 4.34% |
| COC(=O)CCN(C(=O)c1c(C)oc2ncnc(N3CCOCC3)c12)c1ccccc1 | inactive: -3.45% |
| Cc1cccc(N2CCN(C(=O)C3CCN(S(=O)(=O)c4ccc5c(c4)oc(=O)n5C)CC3)CC2)c1C | inactive: -14.8% |
| Cc1cc(C)c2oc(C(=O)Nc3ccc(S(=O)(=O)N(C)c4ccccc4)cc3)cc(=O)c2c1 | inactive: 1.58% |
| O=c1c2c3c(sc2n(Cc2cc(=O)n4ccccc4n2)c(=O)n1-c1ccc(Cl)cc1)CCC3 | inactive: 0.735% |
| O=C(Nc1nc(-c2ccc(Br)cc2)ns1)c1ccccc1F | inactive: -0.662% |
| CC(=O)N1CCCc2cc(S(=O)(=O)N3CCCC(C(=O)Nc4ccc(C)c(C)c4)C3)ccc21 (centres undefined) | inactive: -4.79% |
| COc1cccc(-c2cnc(NCc3ccccc3Cl)n2C)c1 | inactive: -12.7% |
| Cc1ccc(C(=O)Nc2ccc3oc(-c4cccnc4)nc3c2)c(Cl)c1 | inactive: -3.01% |
| Cc1coc2cc3oc(=O)c(CC(=O)NCc4ccccc4)c(C)c3cc12 | inactive: -8.26% |
| CCOc1ccc2nc(N3CCC(C(=O)Nc4c(C)cccc4C)CC3)sc2c1 | inactive: -4.21% |
| Cc1ccc(C)c(N2CCN(C(=O)c3cc4c(=O)n(Cc5cccs5)ccc4nc3C)CC2)c1 | inactive: -16.5% |
| Cc1ccc(S(=O)(=O)Nc2cc3c(cc2Cl)n(C)c(=O)c(=O)n3C)cc1 | inactive: -3.85% |
| CCOC(=O)c1c(S(=O)(=O)NCC(=O)Nc2cc(C)ccc2OC)c(C)n(C)c1C | inactive: -2.58% |

| Structure (SMILES) | activity change, negative = cytotoxicity |
| --- | --- |
| Cc1ccc(C(=O)OCc2cc(=O)n3nc(-c4cccs4)sc3n2)cc1 | inactive: 9.41% |
| COc1ccc(NC(=O)CSc2nc3ccccc3nc2Cc2ccc(C)cc2)cc1Cl | inactive: -15.3% |
| CCCCCn1c(=O)[nH]c2cc(C(=O)N3CCN(c4cc(Cl)ccc4C)CC3)ccc2c1=O | inactive: -0.429% |
| CCOc1ccc(CCn2c3c(c(=O)[nH]c2=O)C(NC(=O)c2ccccc2)(C(F)(F)F)C(=O)N3)cc1OCC (centres undefined) | inactive: 12.5% |
| CCOC(=O)N1CCC(NC(=O)c2ccc3c(c2)N(Cc2cc(C)ccc2C)C(=O)c2ccccc2S3(=O)=O)CC1 | inactive: -7.27% |
| Cc1nc(-c2ccccc2)sc1-c1ccc(SCC(=O)NCc2ccccc2)nn1 | inactive: 18% |
| O=C(Cn1cc(SCc2ccccc2F)c2ccccc21)N1CCCCCC1 | inactive: -13.6% |
| COc1ccccc1NC(=O)Cn1c(=O)n(Cc2cccs2)c(=O)c2cccnc21 | inactive: 8.71% |
| CCN(CC)c1ccc2cc(-c3nc(-c4ccc(Cl)cc4Cl)cs3)c(=O)oc2c1 | inactive: -3.88% |
| N#Cc1ccccc1NC(=O)CSc1ncn[nH]1 | inactive: 6.04% |
| COc1ccccc1C(=O)N1CCCCC1CCN1CCOCC1 (centres undefined) | inactive: 18.1% |
| O=C(Nc1ccc(-c2nc3cc(NC(=O)c4ccccc4F)ccc3o2)cc1)c1ccccc1F | inactive: 3.86% |
| Cc1cccc(C(=O)Nc2ccc(C(=O)OCc3cc(=O)n4c5c(sc4n3)CCCC5)cc2)c1 | inactive: -2.22% |
| CC(=O)c1ccc(NC(=O)c2ccc3c(c2)nnn3C2CCCC2)cc1 | inactive: 15.4% |
| CCOc1ccc(C(=O)CSc2nc3cc(C(=O)NC4CCCC4)ccc3c(=O)n2CC2CCCO2)cc1 (centres undefined) | inactive: 14.2% |
| Cc1ccc(C)c(NC(=O)c2nc(S(C)(=O)=O)ncc2N(Cc2ccc(C(C)(C)C)cc2)Cc2ccco2)c1 | inactive: 0.39% |
| CN1C(=O)Cc2cc(S(=O)(=O)N3CCN(c4cccc(C(F)(F)F)c4)CC3)ccc21 | inactive: -14.4% |
| CCOc1ccc(C(=O)c2cn(CC(=O)Nc3ccc4c(c3)OCCO4)c3ccc(OC)cc3c2=O)cc1 | inactive: 22% |
| O=C(NCc1ccccc1)c1cc2sccc2n1Cc1ccc(F)cc1 | inactive: -16.5% |
| Cn1c(=O)c2c(nc(Oc3ccc(F)cc3)n2Cc2ccc(F)cc2)n(C)c1=O | inactive: 8.88% |
| Cc1ccccc1CNC(=O)Cn1ccc2cc(S(=O)(=O)N3CCCCC3)ccc21 | inactive: 1.34% |
| COc1ccccc1NC(=O)c1sc2nc(C)c(C(=O)Nc3ccc(C)cc3C)c(-c3ccc(Br)cc3)c2c1N | inactive: 19.9% |
